# Source: paper PMC4336329 (PLoS ONE, 2015)
# Hit rate of the full screen: of about 310,000 compounds, about 14,000 (4.5%) showed an effect of 50% or more. The effect is printed as a negative number. The list shows a part of the results.
# Target: human ether-à-go-go-related gene (hERG) potassium channel (human, UniProt Q12809)
# Assay: primary screen, population patch clamp on CHO cells stably expressing hERG
# 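Also: peak tail current of the secondary pulse compared with the same well before compound.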
# Sequence of human ether-à-go-go-related gene (hERG) potassium channel (Q12809 whole entry, looked up): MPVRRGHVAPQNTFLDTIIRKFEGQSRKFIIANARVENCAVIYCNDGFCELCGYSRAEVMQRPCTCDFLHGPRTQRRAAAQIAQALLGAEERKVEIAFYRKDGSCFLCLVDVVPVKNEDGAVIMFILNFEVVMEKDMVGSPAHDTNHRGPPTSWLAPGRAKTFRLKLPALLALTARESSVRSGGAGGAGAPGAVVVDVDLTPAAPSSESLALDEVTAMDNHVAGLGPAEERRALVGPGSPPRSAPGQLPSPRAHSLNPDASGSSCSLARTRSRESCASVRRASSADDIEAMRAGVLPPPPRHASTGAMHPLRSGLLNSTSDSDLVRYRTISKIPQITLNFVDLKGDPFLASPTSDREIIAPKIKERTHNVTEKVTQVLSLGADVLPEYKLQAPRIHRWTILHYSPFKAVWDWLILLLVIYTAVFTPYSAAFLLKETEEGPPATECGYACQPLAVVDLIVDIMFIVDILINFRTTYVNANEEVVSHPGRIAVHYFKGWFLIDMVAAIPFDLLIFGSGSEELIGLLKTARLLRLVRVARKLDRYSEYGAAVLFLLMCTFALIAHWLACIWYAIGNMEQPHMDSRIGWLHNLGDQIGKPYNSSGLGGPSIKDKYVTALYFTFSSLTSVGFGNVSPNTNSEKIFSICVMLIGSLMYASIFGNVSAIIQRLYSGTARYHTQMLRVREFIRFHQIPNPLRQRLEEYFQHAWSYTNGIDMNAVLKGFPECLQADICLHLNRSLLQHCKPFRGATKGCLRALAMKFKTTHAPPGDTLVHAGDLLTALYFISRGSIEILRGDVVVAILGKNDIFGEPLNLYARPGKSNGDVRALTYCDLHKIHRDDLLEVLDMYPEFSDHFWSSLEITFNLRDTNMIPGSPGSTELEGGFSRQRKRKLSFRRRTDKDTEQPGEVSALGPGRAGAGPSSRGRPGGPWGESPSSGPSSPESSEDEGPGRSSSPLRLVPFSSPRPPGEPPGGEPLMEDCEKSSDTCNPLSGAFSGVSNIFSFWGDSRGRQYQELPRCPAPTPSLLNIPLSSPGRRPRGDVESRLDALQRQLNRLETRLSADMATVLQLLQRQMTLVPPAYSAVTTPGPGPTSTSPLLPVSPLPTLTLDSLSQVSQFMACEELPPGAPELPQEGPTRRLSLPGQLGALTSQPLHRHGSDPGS
row,SMILES,"hERG current change (%, negative = inhibition) at 10uM"
1,CC(C)N(Cc1cn[nH]c1-c1ccc(-c2ccccc2)cc1)Cc1nccn1C,-71.9%
2,O=S(=O)(Cc1cccc(F)c1)c1c[nH]c2ccccc12,8.65%
3,Cc1ccc(SCC(=O)OCC(=O)NC2CCCCCC2)cc1,24.6%
4,Cc1cc2c(OCC(O)CN3CCCC3)cccc2[nH]1 (stereo not drawn),18.7%
5,CCN(c1ccccc1)S(=O)(=O)c1cc2c(cc1C)N(C)CCO2,-13%
6,O=C(c1ccc2c(c1)OCO2)N1CCCC1,12.6%
7,Cc1ccc(C(=O)Nc2cccc(-c3cnc4ccccc4n3)c2)cc1,7.83%
8,COc1ccccc1NC(=O)N1CCN(C(=O)Nc2ccccc2OC)CC1,0.184%
9,C#CCOCCOCCOCCNc1nc(N2CCN(C(=O)Cn3cc(CCCC[NH3+])nn3)CC2)nc(N2CCN(C(=O)[C@H](CCCC[NH3+])n3cc(CCC(=O)O)nn3)CC2)n1.[Cl-],6.98%
10,O=C(COC(=O)c1ccccc1NCCO)NCc1cccs1,0.449%
11,COC(=O)[C@H]1C[C@@H]1[C@H](NC(=O)c1cc(C)on1)c1ccccc1,10.3%
12,CC1CCCCC1NC(=O)c1ccc(-n2cncn2)c([N+](=O)[O-])c1 (stereo not drawn),-13.5%
13,COc1ccc(C2CC(c3ccccc3Cl)Nc3ncnn32)cc1OC (stereo not drawn),-23.3%
14,COC(=O)c1cn(C(C)C(=O)NCc2ccco2)c2ccccc12 (stereo not drawn),9.97%
15,Cc1ccc(CN2CCN(Cc3cn[nH]c3-c3cccc(F)c3)CC2CCO)o1 (stereo not drawn),-25.8%
16,Cc1cc(=O)c(C(=O)c2ccccc2)c(C)o1,21.2%
17,S=c1[nH]nc(Cc2cccc3ccccc23)o1,18.7%
18,Nc1nc2c(Cl)cc(Cl)cc2s1,19.1%
19,Cc1cc(C)c2c(=O)n(CC(=O)NC3CCCC3)sc2n1,4.76%
20,CC1(c2nnc(-c3cccc(Cl)c3)o2)CC(c2cccc(F)c2)=NO1 (stereo not drawn),-1.02%
21,O=C(NC(=S)Nc1cccnc1)c1ccccc1,13%
22,Cc1nc2ccccn2c1C(=O)NNC(=O)Nc1cccc(C(F)(F)F)c1,-11%
23,CN(C)S(=O)(=O)c1cccc(C(=O)c2nccn2C)c1,3.94%

row,SMILES,"hERG current change (%, negative = inhibition) at 10uM"
1,Cc1ccc(NC(=O)CN2CCCCC2)c2c1CC(C)(C)O2,1.17%
2,CCOC(=O)c1oc2ccccc2c1NC(=O)c1cc(OC)cc(OC)c1,7.29%
3,O=C(CS(=O)c1cccc(C(F)(F)F)c1)Nc1ccc(Cl)cc1Cl (stereo not drawn),8.83%
4,N#Cc1c(N2CCOCC2)nc(N)c2c(N)nc3c(c12)CC(CCl)O3 (stereo not drawn),3.55%
5,O=C(O)c1cc2ccccc2c2cc(Br)ccc12,15.5%
6,O=C(Cn1nnc(N2CCCC2)n1)N/N=C/c1ccc(Cl)cc1,13.1%
7,O=c1sc2ccccc2c(N2CCCC2)c1[N+](=O)[O-],6.33%
8,O=C(NCCn1ccc2ccccc21)C1CCCCC1,-1.81%
9,COc1ccccc1N1CCN(C(=O)Cc2c(C(=O)O)[nH]c3ccc(Cl)cc23)CC1,18.7%
10,CCOC(=O)c1ccc(NC(=O)CSc2nnc(CNC(=O)c3c(F)cccc3Cl)o2)cc1,-6.94%
11,COC(=O)C1=C(c2ccccc2)C[C@@H]2CC[C@H]1N2C(=O)N1CCC(C)CC1,-7.73%
12,CC(C)NC(=O)CN1CCC(O)(c2ccccc2)CC1,-1.07%
13,CCOC(=O)C1CCN(C(=O)c2ccc(N3CCOCC3)c([N+](=O)[O-])c2)CC1,-41.8%
14,CCN1N=C(c2ccccc2)CCC1=O,16.8%
15,O=C(c1ccc(COc2ccc(Br)cc2)o1)N1N=C(C(F)F)CC1(O)C(F)F (stereo not drawn),2.57%
16,Cc1nc(-c2cc(C#N)c(Sc3cccc(C(F)(F)F)c3)nc2C)cs1,14.7%
17,Cc1ccc(C(C)(C)NC(=O)C2CCC(=O)N(CC3CCCCC3)C2)cc1 (stereo not drawn),3.82%
18,CCOc1cc(S(=O)(=O)N(CC)CC)ccc1F,-1.31%
19,Cc1ccc(C(=O)NNC(=S)Nc2cccc3ccccc23)s1,19%
20,COCC(=O)N1CCC(Oc2ccc(C(=O)N(C)CCCC3CCCC3)cc2)CC1,-26.9%
21,COc1cc(Br)c(CC(=O)O)cc1OC,-2.3%
22,O=C(CSc1nnc(-c2cccs2)n1Cc1ccccc1)N1CCc2ccccc2C1,-32.4%
23,Cc1cc(-c2csc(N)n2)c(C)n1CCC(C)C.Cl,4.32%

row,SMILES,"hERG current change (%, negative = inhibition) at 10uM"
1,Cc1cc(C(=O)Nc2ccc(OCc3ccccc3)cc2)c(C)o1,13.6%
2,CCOC(=O)c1ccc(NC(=O)CC2Sc3ncnn3C2=O)cc1 (stereo not drawn),22.4%
3,COc1ccccc1N(CC(=O)NC1CCCCC1)S(C)(=O)=O,18.9%
4,COc1ccc(CNC(=O)CN(C2CCCCC2)S(C)(=O)=O)cc1,-13.8%
5,O=C(CSc1ccccc1)Nc1cccnc1,23%
6,CCN(CC(=O)NCc1cccs1)S(=O)(=O)c1cccc(Br)c1,11.9%
7,COc1cc(NC(=O)c2ccc(NC3=NC4CS(=O)(=O)CC4S3)cc2)cc(OC)c1OC (stereo not drawn),-11.2%
8,Cc1ccc(NC(=O)c2ccc([N+](=O)[O-])o2)cc1C,6.74%
9,O=C1CCC(C(=O)O)(c2ccccc2)C1 (stereo not drawn),8.52%
10,COC(=O)c1cc(Br)c(=O)n(CC(C)C)c1,10.1%
11,CCN(CC)C(=O)N1CCN(C(=O)N2CCOCC2)CC1,29.8%
12,Cc1ccc(SCc2nc3ccccc3n2CC(=O)Nc2c(C)cccc2C)cc1,3.07%
13,S=C(NCc1ccc2c(c1)OCO2)NCc1ccc2c(c1)OCO2,-9.62%
14,CC(C)(C)NC(=O)C(c1ccc(F)cc1)N(Cc1ccco1)C(=O)CCC(=O)Nc1nccs1 (stereo not drawn),10.6%
15,COc1ccccc1N(C)S(=O)(=O)c1ccc(C(=O)NCc2ccc3c(c2)OCO3)cc1,4.2%
16,Cc1cc(/C=N/Nc2ncnc(N)c2[N+](=O)[O-])c(C)n1-c1ccccc1,-9.15%
17,CN1CCN(Cc2nc(-c3cccs3)no2)CC1c1ccccc1 (stereo not drawn),-8.45%
18,CN=C(Nc1ccc(C(=O)OC)cc1)SC1CC(=O)N(c2ccccc2F)C1=O (stereo not drawn),10.2%
19,O=C(Cc1ccccc1F)Nc1cc(S(=O)(=O)N2CCCC2)ccc1Cl,14%
20,CC(OC(=O)c1ccccc1CCc1ccccc1)C(N)=O (stereo not drawn),5.05%
21,O=C(O)c1cccc(S(=O)(=O)N2CCCC2)c1,-14.3%
22,O=C(Cn1nc(-c2ccc(F)cc2)ccc1=O)Nc1ccc2c(c1)OCCO2,-0.525%
23,O=C(CN1CCCc2ccccc21)NCc1ccccc1Cl,11.1%

row,SMILES,"hERG current change (%, negative = inhibition) at 10uM"
1,c1ccc(Oc2cccc(Oc3ccccc3)n2)cc1,14.1%
2,CC(=O)Oc1ccc(C)cc1-n1nc2ccccc2n1,-9.28%
3,COC(=O)c1ccccc1S(=O)(=O)N1CCC(C(=O)NC2CCCCC2)CC1,-3.67%
4,Cn1c(Cc2csc(N)n2)nnc1SCC(=O)NCc1ccccc1,1.12%
5,CN(C)c1ccc(S(=O)(=O)N2CCCCC2)cc1NC(=O)CCNC(=O)c1ccc(Cl)cc1,-27.4%
6,Cc1ccccc1N(CC(=O)Nc1ccccc1C(=O)O)S(C)(=O)=O,10.9%
7,[O-][n+]1ccc(OCc2ccccc2)cc1,-3.98%
8,Cc1cccc(NC(=O)COC(=O)c2cc3ccccc3oc2=O)c1,-13.2%
9,COc1ccc(S(=O)(=O)n2nc(-c3ccc(Cl)cc3)cc2N)cc1,11.7%
10,O=C(NCCCN1CCCC1)c1ccc2c(c1)N(Cc1ccccc1F)C(=O)c1ccccc1S2(=O)=O,3.48%
11,CCN(CC)S(=O)(=O)c1ccc(N2CCOCC2)c(NC(=O)c2ccc3ccccc3c2)c1,13.6%
12,Cc1[nH]c2ccccc2c1C(=O)C(=O)Nc1ccc2c(c1)OCO2,0.276%
13,Cc1nn(-c2ccccc2)c2sc(C(=O)OCN3C(=O)c4ccccc4C3=O)cc12,0.225%
14,COc1ccc(C2=NNC(c3cccnc3)=Nc3ccccc32)cc1,-2.94%
15,OCCNc1ncnc2c1ncn2Cc1ccccc1,-7.11%
16,Cc1ccc(NC(=O)Cn2ncc3ccccc32)c(Cl)c1,2.7%
17,COC(=O)C1=C(c2cccc(OC)c2OC)C[C@@H]2CC[C@H]1N2C(=O)NCCNC(C)=O,10.7%
18,O=C(COC(=O)/C=C/c1cn(-c2ccccc2)nc1-c1cccnc1)Nc1ccc(Cl)cc1Cl,-6.59%
19,ClCCOCOCCCl,13.9%
20,CS(=O)(=O)c1ccc(Cl)c(NC(=O)COC(=O)c2ccc(-n3cnnn3)cc2)c1,-7.82%
21,CCOc1ccc(OCc2ccc(C(=O)N(CC)CC)cc2)cc1,2.22%
